Experimental data published in PubChem BioAssay AID651820 (National Center for Advancing Translational Sciences (NCATS), 2012).
Among all 340,000 compounds or so, about 12,000 (3.5%) were called active. The inconclusive results got no clear call from the source; some entries with a clear call stand among them for comparison. Calls follow the shape of the dose curve; as a rule, active = well fitted inhibition curve with a large enough effect; inconclusive = small, poorly fitted or top-dose-only effect, or another doubt; inactive = no such curve, though single readings can be large or run the other way. No potency is given beside an inconclusive call; the fits are too rough.

assay: qHTS Assay for Inhibitors of Hepatitis C Virus (HCV); details: Huh7.5.1 HCVcc-Cre (HCVcc is cell-culture hepatitis C virus) infection, luciferase reporter, 44 h; activity change, negative = inhibition: at 41.8 µM (top of the series)
Method in brief: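 Cells seeded at 1,000/well and cultured 4 h, then compounds added followed by HCVcc-Cre virus (~0.5 moi). After 44 h further culture, luciferase substrate was added, plates held 15 min at room temperature, and luminescence read for 15 sec.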
% is scaled to controls: 0 for no effect and ±100 for the full control effect; potency is read from the fitted curve at half-maximal effect; tags tell the direction and shape of the fitted curve.

Structure (SMILES) | Potency | activity change, negative = inhibition
CCN1CCN(C(=O)c2ccc3c(=O)n(CCc4ccccc4)c(=O)[nH]c3c2)CC1 | inconclusive [inhibitor, partial curve] | 
COc1ccc(Nc2c(-c3ccco3)nc3cccc(C)n23)cc1 |  | inactive: -13.2%
COc1ccc(NC(=O)/C(=C/c2cccnc2)NC(=O)c2cccs2)cc1 |  | inactive: 7.87%
CCC(C)NC(=O)CN(C1CCCCC1)S(C)(=O)=O (stereo not drawn) | inconclusive [inhibitor, partial curve, poor fit] | 
CCOc1ccccc1C(=O)N1CCN(c2ccc(C(F)(F)F)cn2)CC1 | inconclusive [inhibitor, partial curve, poor fit] | 
CCc1ccc2c(c1)[C@H]1OCC[C@H]1[C@@H](c1cccs1)N2 | inconclusive [inhibitor, single point] | 
CC(=O)c1ccc(-n2cc(-c3ccc(C(C)(C)C)cc3)[n+]3c2SCCC3)cc1 |  | inactive: -2.96%
CS(=O)(=O)N(CC(=O)N/N=C/c1cc([N+](=O)[O-])ccc1Cl)c1ccccc1 |  | inactive: 14%
COc1ccc(OCCOc2ccc(S(=O)(=O)N3CCCC3)cc2C(N)=O)cc1 | inconclusive [inhibitor, single point] | 
OCCNCc1ccc(-c2ccccc2)cc1 | inconclusive [inhibitor, single point] | 
C=C1CCN([C@H](C(=O)NCc2ccccc2)C(C)C)S(=O)(=O)c2ccccc21 | inconclusive [inhibitor, single point] | 
COc1ccccc1-c1cc(N)n(S(=O)(=O)c2cccc3nsnc23)n1 | inconclusive [inhibitor, partial curve] | 
C/C=C(\C)C(=O)Nc1cccc(C2=NOC3(C2)C[C@@H](C(N)=O)N(C(=O)c2cc([N+](=O)[O-])cc([N+](=O)[O-])c2C)C3)c1 (stereo partly drawn) | inconclusive [inhibitor, partial curve] | 
N#Cc1cccc(NC(=O)CNc2cccc(S(=O)(=O)N3CCCC3)c2)c1 | active: 2.51 µM | 
O=C(CNC(=O)c1ccccc1F)NCCc1ccccc1F |  | inactive: -6.72%
COc1ccc(Cl)cc1NC(=S)NCc1cccnc1 | inconclusive [inhibitor, single point] | 
Cc1onc(-c2ccccc2Cl)c1C(=O)NCc1ccccn1 |  | inactive: 0.199%
Cn1cnnc1SCC(=O)Nc1ncc([N+](=O)[O-])s1 |  | inactive: -8.41%
CCOc1ccc(Br)cc1C(=O)N/N=C/c1cccc(C)n1 |  | inactive: 13.8%
Oc1ccc(O)c(-c2cnns2)c1 | inconclusive [inhibitor, partial curve] | 
CCCOc1ccc(-c2nc(C#N)c(N3CCC(C(N)=O)CC3)o2)cc1 | inconclusive [inhibitor, partial curve] | 
COc1cccc(-c2nc(N3CCCCC3)c3ccccc3n2)c1O | inconclusive [inhibitor, single point] | 
COc1cccc(Nc2nc(N)nc(-c3oc4ccccc4c3C)n2)c1 | inconclusive [inhibitor, partial curve] | 

Structure (SMILES) | Potency | activity change, negative = inhibition
Cc1nc(NC(=O)c2c(-c3ccccc3Cl)noc2C)sc1C | inconclusive [inhibitor, single point] | 
O=C(Nc1ccc([N+](=O)[O-])cc1Cl)c1cc(Cl)ccc1O | active: 1.26 µM | 
CC(NC(=O)CSc1nnc(-c2cc3cc(Cl)ccc3o2)n1C)c1ccccc1 (stereo not drawn) | inconclusive [inhibitor, single point] | 
Cc1ccc(-c2nnn(CC(=O)NC3CCN(Cc4ccccc4)CC3)n2)cc1 | active: 22.4 µM | 
CCCN1CCc2nc(SCC(=O)Nc3ccc(C)c(Cl)c3)[nH]c(=O)c2C1 |  | inactive: -3.51%
Cc1cc(C)c(S(C)(=O)=O)c(Oc2cccc(C(F)(F)F)c2)n1 | inconclusive [inhibitor, single point] | 
CCCCC(=O)NCCc1cc2ccc(OC)cc2[nH]c1=O |  | inactive: 0.73%
c1ccc(C2CC(c3ccccc3)C(c3ccccc3)N2)cc1 (stereo not drawn) |  | inactive: 22.6%
O=C1CN(C(=O)c2ccc(Br)o2)C(c2ccccc2)c2cc(F)ccc2N1 (stereo not drawn) |  | inactive: 1.39%
COc1ccc(-c2nnc(-c3cc(OC)c(OC)c(OC)c3)o2)cc1OC | inconclusive [inhibitor, full curve] | 
CCC(Sc1nnnn1-c1ccccc1)C(=O)NC(C)c1ccccc1 (stereo not drawn) | inconclusive [inhibitor, single point] | 
Cc1nc(-c2ccc(F)cc2)c(CC(=O)Nc2ccc(C)c(S(=O)(=O)N3CCOCC3)c2)s1 | active: 7.94 µM | 
C=CCn1c(-c2ccccc2)cc(SC)c(C#N)c1=O | inconclusive [inhibitor, partial curve, poor fit] | 
Cc1ccnc(NS(=O)(=O)c2ccc(NC(=O)C34CC5CC(C)(CC(C)(C5)C3)C4)cc2)n1 | inconclusive [inhibitor, full curve, poor fit] | 
CO[C@@]12[C@@H]3N[C@@H]3CN1C1=C(C(=O)C(N)=C(C)C1=O)[C@@H]2COC(N)=O | inconclusive [inhibitor, partial curve] | 
Cn1cc(C(=O)CCl)c2ccccc21 | active: 7.94 µM | 
OC(COc1ccc(Cl)cc1)CN1CCC(Cc2ccccc2)CC1 (stereo not drawn) | inconclusive [inhibitor, single point] | 
O=[N+]([O-])c1ccc(N2CCCCCC2)c2ncccc12 | inconclusive [inhibitor, full curve, poor fit] | 
O=C(CNC1CCCCC1)Nc1ccc([N+](=O)[O-])cc1C(=O)Nc1ccccc1F | inconclusive [inhibitor, partial curve] | 
COc1ccccc1NS(=O)(=O)c1cccc(NC(=O)C2CC2)c1 |  | inactive: 1.14%
Cc1ccc(-c2cc(C(F)(F)F)c(C#N)c(SCCC#N)n2)o1 | inconclusive [inhibitor, partial curve] | 
CCN1CCCC1CN(Cc1cc2ccc(C)cc2[nH]c1=O)C(=S)Nc1cccc(OC)c1 (stereo not drawn) | inconclusive [inhibitor, single point] | 
O=C(Nc1ccc(S(=O)(=O)NC2=NCCCCC2)cc1)c1ccc(C(F)(F)F)cc1 | inconclusive [inhibitor, single point] | 

Structure (SMILES) | Potency | activity change, negative = inhibition
CNC(=O)c1c(NC(=O)c2ccco2)sc2c1CCC2 | active: 11.2 µM | 
Cc1cc(NC(=O)CCC(=O)N(Cc2ccco2)C(C(=O)NC2CCCC2)c2ccccc2C)no1 (stereo not drawn) | inconclusive [inhibitor, single point] | 
Cc1ccc(N2C(=O)N(CC(=O)Nc3cccc([N+](=O)[O-])c3C)C(=O)C2C)cc1 (stereo not drawn) | inconclusive [inhibitor, partial curve, poor fit] | 
O=C(c1cccs1)N1CCc2ccccc21 | inconclusive [inhibitor, single point] | 
O=C(CCSc1nc(-c2ccco2)cc(C(F)(F)F)n1)NCC1CCCO1 (stereo not drawn) | active: 10 µM | 
Cc1cc(NC(=O)CSc2nc3c(sc4ccccc43)c(=O)n2CCCN2CCOCC2)n[nH]1 | active: 5.62 µM | 
CCN(CC)S(=O)(=O)c1ccc2oc(C(=O)NCCCN3CCOCC3)c(C)c2c1 | inconclusive [inhibitor, single point] | 
CN1CCN(c2ccc(NC(=S)NC(=O)c3cccc4ccccc34)cc2)CC1 | active: 11.2 µM | 
O=C(NCCc1ccc2c(c1)OCCO2)c1cc(F)cc(F)c1 | inconclusive [inhibitor, partial curve, poor fit] | 
CC(=O)c1ccccc1NS(=O)(=O)c1c(C)nn(-c2ccccc2)c1C | inconclusive [inhibitor, full curve, poor fit] | 
Cc1cc(N2CCCC(C(=O)Nc3cccc4ccccc34)C2)n2ncnc2n1 (stereo not drawn) | inconclusive [inhibitor, single point] | 
Cc1ccc2c(c1)C(=O)N1[C@H]3c4ccccc4OC[C@@H]3[C@H](c3ccccc3)[C@]1(C)C(=O)N2 | inconclusive [inhibitor, single point] | 
Cc1cc2c(cc(C(=O)OC(C(=O)NCC3CCCO3)C(C)C)n2C)o1 (stereo not drawn) | inconclusive [inhibitor, full curve] | 
NC(=O)c1cc(N2CC2)c([N+](=O)[O-])cc1[N+](=O)[O-] |  | inactive: 0.326%
COC(=O)C1CCN(C(=O)COC(=O)CNS(=O)(=O)c2ccc(SC)c([N+](=O)[O-])c2)CC1 | inconclusive [inhibitor, single point] | 
COc1ccc(C(c2c(NC(=O)c3ccco3)sc(C)c2C)N2CCOCC2)cc1 (stereo not drawn) | inconclusive [inhibitor, single point] | 
Cc1cc(C)c(S(=O)(=O)N2CCN(S(=O)(=O)N3CCCCCC3)CC2)c(C)c1 | inconclusive [inhibitor, partial curve] | 
CC1CCN(C(C)C(=O)Nc2cc(S(=O)(=O)N3CCCCC3)ccc2Cl)CC1 (stereo not drawn) | active: 15.8 µM | 
CC(=O)Nc1nc2ccccc2n1Cc1ccc(C)cc1 | inconclusive [inhibitor, single point] | 
Cc1ccc(NC(=O)c2cccc(OCc3c(C)noc3C)c2)cc1 | inconclusive [inhibitor, partial curve] | 
Cc1cc(C)cc(NC(=O)C(c2ccccc2)N2CCCC2)c1 (stereo not drawn) |  | inactive: 14.9%
COc1ccccc1C(CNC(=O)c1ccc(C)c(S(=O)(=O)N2CCCCC2)c1)N(C)C (stereo not drawn) | inconclusive [inhibitor, partial curve] | 
